# Measurements as given in the supplement of paper PMC9446081.
# The campaign covered roughly 39,000 compounds. About 220 (0.56%) showed activity. The list shows a part of the results.
# Test system: Escherichia coli K-12 BW25113
# Assay: relative growth (OD600 normalised to plate interquartile mean) (fraction); higher = less growth inhibition, active = 0.2 or less
# Settings: 50 µM; LB; incubation time: overnight (16-24 h)
# 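Note: static incubation at 37 °C against the wild-type strain, values averaged over two biological replicates.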
row,Structure (SMILES),relative growth
1,C[C@H]1CCCCO[C@H](CN(C)S(=O)(=O)c2ccccc2)[C@@H](C)CN([C@@H](C)CO)C(=O)c2cc(NC(=O)NC3CCCCC3)ccc2O1,inactive: 1.02
2,COc1ccc(S(=O)(=O)N(C)C[C@@H]2Oc3ccc(NC(=O)CCCN(C)C)cc3CC(=O)N([C@@H](C)CO)C[C@H]2C)cc1,inactive: 1
3,C[C@H]1CN([C@@H](C)CO)C(=O)c2cccc(NC(=O)Nc3ccccc3)c2O[C@H]1CN(C)S(C)(=O)=O,inactive: 0.979
4,C[C@@H]1CCCCO[C@@H](CN(C)Cc2ccc(C(=O)O)cc2)[C@H](C)CN([C@H](C)CO)C(=O)c2cc(NC(=O)Nc3ccc(F)cc3)ccc2O1,inactive: 1.02
5,COc1cc(N2CCN(S(C)(=O)=O)CC2)nc(C)n1,inactive: 1.03
6,C[C@H]1CN([C@@H](C)CO)C(=O)Cc2cc(NC(=O)Nc3ccc(F)cc3)ccc2O[C@H]1CN(C)Cc1ccc(-c2ccccc2)cc1,inactive: 1.04
7,S=C1NCN(C2CCCC2)CN1,inactive: 1.05
8,C[C@@H]1CN([C@@H](C)CO)C(=O)CCCn2nncc2CO[C@@H]1CN(C)S(=O)(=O)c1cccc(C#N)c1,inactive: 1
9,COc1ccc([Si](C)(C)[C@H]2[C@H](CCn3cc([C@H](O)c4ccccc4)nn3)O[C@@]3(C(=O)N(c4ccccc4)c4ccccc43)[C@@H]2C)cc1,inactive: 0.895
10,COc1ccc(S(=O)(=O)N(C)C[C@H]2Oc3c(NC(=O)c4cnccn4)cccc3C(=O)N([C@H](C)CO)C[C@H]2C)cc1,inactive: 0.989
11,COc1ccccc1NC(=O)N(C)C[C@@H]1OCc2ccccc2-c2c(n(C)c3ccccc23)C(=O)N([C@@H](C)CO)C[C@H]1C,inactive: 1.02
12,NC(=O)[C@H]1[C@@H]2C(=O)O[C@@H](c3ccccc3)[C@@H](c3ccccc3)N2[C@@H](c2ccccc2OCCO)[C@]12C(=O)Nc1ccc(C#CC3=CCCCC3)cc12,inactive: 1.03
13,C[C@H](CO)N1C[C@H](C)[C@H](CN(C)Cc2ccc(C(F)(F)F)cc2)Oc2ccc(NC(=O)Nc3ccc(F)cc3)cc2C1=O,inactive: 0.993
14,Nc1nnc(CO)[nH]1,inactive: 1.02
15,C[C@@H]1CCCCO[C@H](CN(C)C(=O)Nc2cccc3ccccc23)[C@H](C)CN([C@H](C)CO)C(=O)c2cc(NS(=O)(=O)c3ccc(F)cc3)ccc2O1,inactive: 1.02
16,COc1ccc(NC(=O)Nc2ccc3c(c2)C(=O)N([C@@H](C)CO)C[C@H](C)[C@@H](CN(C)Cc2ccc(Cl)c(Cl)c2)OCCCC[C@@H](C)O3)cc1,inactive: 1.06
